Measured values as given in PubChem BioAssay AID1768 (National Center for Advancing Translational Sciences (NCATS), 2009).
Screen size: about 270,000 compounds; about 620 (0.23%) were called active. Inconclusive means that the source gave no clear call. Such entries were picked first, then a sample of the others. The call rests on the fitted dose curve; in most records, active means well fitted inhibition curve with a large enough effect in the polarisation, with a control signal flat (not every such curve was filed as active); inconclusive means small, poorly fitted or top-dose-only effect, or effect the other way, or a change in a side signal; inactive means no such curve, though single readings can be large or run the other way; the % refers to the polarisation. A potency beside an inconclusive call is a rough fit, not a confirmed value. “Side channel” marks fits to a control or component signal instead of the main read-out.

Target: Menin (Homo sapiens) (UniProt O00255)
Assay: qHTS Assay for Inhibitors Targeting the Menin-MLL Interaction in MLL Related Leukemias: Competition With Texas Red Labeled MLL-derived Mutant Peptide
Conditions: fluorescence polarization; series mostly up to 61.6 µM
Potency means the concentration at half of the fitted maximal effect; tags describe the fitted curve by direction and shape or compound fluorescence and quenching.

UniProt O00255, sequence (O00255 whole entry, looked up): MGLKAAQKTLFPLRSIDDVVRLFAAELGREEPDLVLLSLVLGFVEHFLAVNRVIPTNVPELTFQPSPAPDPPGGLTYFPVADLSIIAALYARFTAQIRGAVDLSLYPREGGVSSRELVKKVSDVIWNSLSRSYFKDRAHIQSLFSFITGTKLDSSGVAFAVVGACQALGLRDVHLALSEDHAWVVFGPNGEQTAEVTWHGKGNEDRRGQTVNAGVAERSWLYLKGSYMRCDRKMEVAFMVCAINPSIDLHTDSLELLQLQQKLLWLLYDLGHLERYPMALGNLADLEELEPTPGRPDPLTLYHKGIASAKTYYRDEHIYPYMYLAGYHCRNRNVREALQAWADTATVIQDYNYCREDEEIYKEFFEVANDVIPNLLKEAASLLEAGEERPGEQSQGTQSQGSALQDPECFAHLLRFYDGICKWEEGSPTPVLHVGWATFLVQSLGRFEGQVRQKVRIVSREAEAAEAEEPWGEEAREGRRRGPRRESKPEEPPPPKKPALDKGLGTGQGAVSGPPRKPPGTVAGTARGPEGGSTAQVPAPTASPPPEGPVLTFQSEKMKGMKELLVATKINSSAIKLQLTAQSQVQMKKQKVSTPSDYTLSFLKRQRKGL

For CCOc1ccc(C(=O)Nc2ccc3c(c2)OCCO3)cc1[N+](=O)[O-], which Potency is on record?
Its Potency is inconclusive: 14.1 µM [quencher, side channel, partial curve].

With Cc1cc(N2CCOCC2)nc2ccc(NC(=S)N3CCCCC3C)cc12 (centres undefined) as the compound, how does the Potency read?
Its Potency is inconclusive: 14.1 µM [quencher, side channel, partial curve].

Which Potency does the source give for COc1cc(CNC2CCCC2)c(Br)cc1OC1CCCC1 here?
Its Potency is inconclusive: 35.5 µM [fluorescent, side channel, single point].

How did the Potency turn out when O=C(Nn1c(O)c(C=C2N=c3ccccc3=N2)sc1=S)c1ccccc1Cl was run?
The Potency was inconclusive: 28.2 µM [quencher, side channel, partial curve].

Which Potency does the source give for N#C/C(=C\c1ccc(N2CCOCC2)o1)c1ccccc1 here?
Its Potency is inconclusive: 39.8 µM [inhibitor, single point].

Which Potency does the source give for O=C(OC(C(=O)Nc1ccc(Cl)c(C(F)(F)F)c1)c1ccccc1)C1=COCCO1 (centres undefined) here?
Its Potency is inconclusive: 8.91 µM [quencher, side channel, partial curve].

COc1ccc(NC(=O)c2ccc(C)cc2)c(OC)c1 was tested. Which Potency did it give?
The Potency was “inactive”.

How did the Potency turn out when CN1CCN(c2ncnc3ccc(-c4cccc(C#N)c4)cc23)CC1 was run?
The Potency was inconclusive: 39.8 µM [inhibitor, partial curve].

Which Potency does the source give for Cc1ccc(NC(=O)Nc2ccccc2)cc1[N+](=O)[O-] here?
The Potency was inconclusive: 28.2 µM [quencher, side channel, partial curve].

With COc1ccc(NCC(O)Cn2c(C)c(C)c3ccccc32)cc1 (centres undefined) as the compound, how does the Potency read?
Its Potency is inconclusive: 14.1 µM [quencher, side channel, partial curve].

How did the Potency turn out when O=[N+]([O-])c1c(NCCCO)cc(N2CCCCCC2)c2nonc12 was run?
The Potency was inconclusive: 22.4 µM [inhibitor, partial curve].

With CC(=O)OCc1c(C)cc(C)c(/C=C(/C#N)C(N)=O)c1C as the compound, how does the Potency read?
Its Potency is inconclusive: 1.78 µM [inhibitor, partial curve].

With O=C(Nc1cccc(O)c1)C1CCCN1C(=O)OCc1ccccc1 (centres undefined) as the compound, how does the Potency read?
The Potency was “inactive”.

For Cc1ccc2oc(-c3ccccc3C(=O)O)cc(=O)c2c1, which Potency is on record?
Its Potency is “inactive”.

With Cc1nc2ccccc2c(=O)n1NC(=O)c1c(F)cccc1F as the compound, how does the Potency read?
The Potency was inconclusive: 28.2 µM [inhibitor, single point].

How did the Potency turn out when C=CCn1c(N)c(C(=O)OCCC)c2nc3ccccc3nc21 was run?
The Potency was “inactive”.

How did the Potency turn out when Cc1cc(C)n(-c2ccc(C(=O)Nc3cccc([N+](=O)[O-])c3)cc2)n1 was run?
Its Potency is inconclusive: 14.1 µM [quencher, side channel, partial curve].

Oc1cc(-n2cccn2)c(O)cc1-n1cccn1 was tested. Which Potency did it give?
Its Potency is inconclusive: 35.5 µM [inhibitor, single point].

COc1ccccc1N1CCN(C(=O)c2oc3cc(C)c(C)cc3c2C)CC1 was tested. Which Potency did it give?
Its Potency is inconclusive: 15.8 µM [fluorescent, side channel, partial curve].

COc1cccc(/C=N/Nc2cc(C)nc(-c3ccccc3O)n2)c1O was tested. Which Potency did it give?
Its Potency is inconclusive: 2.51 µM [quencher, side channel, full curve].

O=C(Nc1ccccc1C(=O)O)/C(=C/c1ccc([N+](=O)[O-])cc1)NC(=O)c1ccc(Br)o1 was tested. Which Potency did it give?
Its Potency is inconclusive: 8.91 µM [quencher, side channel, full curve].

For COc1ccc(S(=O)(=O)N(CC(=O)NCc2ccco2)c2ccc(C)cc2)cc1OC, which Potency is on record?
The Potency was inconclusive: 31.6 µM [inhibitor, single point].

CC[C@@H]1C(c2cccc(Cl)c2)=NN(c2ccccc2)[C@H]1C(=O)N1CCOC1=O was tested. Which Potency did it give?
Its Potency is inconclusive: 5.01 µM [quencher, full curve, poor fit].

How did the Potency turn out when CCOc1ccc(N(CC(=O)NC2CCCCC2)C(=O)CCC(=O)Nc2nc(C)cs2)cc1 was run?
Its Potency is inconclusive: 7.94 µM [fluorescent, side channel, partial curve].

With CC1CCc2sc(NC(=O)c3ccc(N4C(=O)CCC4=O)cc3)c(C(N)=O)c2C1 (centres undefined) as the compound, how does the Potency read?
The Potency was inconclusive: 11.2 µM [quencher, side channel, partial curve].

For CCNC(=S)N(Cc1ccc2c(c1)OCO2)C1CC(=O)N(c2ccc(OC)cc2)C1=O (centres undefined), which Potency is on record?
The Potency was inconclusive: 15.8 µM [quencher, side channel, partial curve].

OCC1OC(n2nnc3ccccc32)C(O)C(O)C1O (centres undefined) was tested. Which Potency did it give?
The Potency was “inactive”.

With CCCS(=O)(=O)n1nc(-c2ccc(Br)cc2)cc1N as the compound, how does the Potency read?
Its Potency is inconclusive: 31.6 µM [quencher, side channel, single point].

With CCOc1ccccc1-n1c(=S)sc2c(=O)n(-c3ccc(F)cc3)c(SCC(=O)O)nc21 as the compound, how does the Potency read?
Its Potency is inconclusive: 12.6 µM [quencher, side channel, partial curve].

For Cc1c(C(c2ccc(C(=O)O)cc2)c2c(C)n(C)n(-c3ccccc3)c2=O)c(=O)n(-c2ccccc2)n1C, which Potency is on record?
Its Potency is inconclusive: 31.6 µM [inhibitor, single point].

COc1ccc(N2C(=O)CC(N3CCOCC3)C2=O)cc1 (centres undefined) was tested. Which Potency did it give?
Its Potency is “inactive”.

Cn1c(SCC(=O)N/N=C/c2cccs2)nc2ccccc21 was tested. Which Potency did it give?
Its Potency is inconclusive: 3.98 µM [inhibitor, full curve].

O=C(Nc1ccc(F)cc1)c1ccc(COc2ccccc2)cc1 was tested. Which Potency did it give?
Its Potency is inconclusive: 11.2 µM [inhibitor, partial curve].

How did the Potency turn out when Cc1cc(NS(=O)(=O)c2ccc(NC(=O)c3cc(-c4ccccc4Cl)nc4ccccc34)cc2)no1 was run?
Its Potency is inconclusive: 12.6 µM [quencher, side channel, partial curve, poor fit].

For Cc1ccc(-c2ccnc3[nH]n(-c4ccccc4)c(=O)c23)cc1, which Potency is on record?
Its Potency is inconclusive: 39.8 µM [quencher, side channel, single point].

How did the Potency turn out when O=c1cc(-c2ccccc2)[nH]c2ccc(Cl)cc12 was run?
Its Potency is inconclusive: 35.5 µM [inhibitor, partial curve].

For O=C(CCN1CCN(C(c2ccccc2)c2ccccc2)CC1)N/N=C/c1ccc(O)cc1O, which Potency is on record?
The Potency was “inactive”.

With O=C(NCc1ccc(F)cc1)c1cc(-c2cccs2)on1 as the compound, how does the Potency read?
Its Potency is inconclusive: 14.1 µM [inhibitor, partial curve].

For Cc1ccc(NC(=O)c2cccc(NC(=O)/C=C/c3ccco3)c2)cc1C, which Potency is on record?
Its Potency is inconclusive: 8.91 µM [quencher, side channel, partial curve].

How did the Potency turn out when Cc1ccccc1NCc1ccc([N+](=O)[O-])s1 was run?
The Potency was “inactive”.

Which Potency does the source give for CC1CC(C)CN(S(=O)(=O)c2ccc(C(=O)Nc3nnc(-c4cccs4)o3)cc2)C1 (centres undefined) here?
The Potency was inconclusive: 15.8 µM [quencher, side channel, partial curve].

Which Potency does the source give for CCCCCn1c(Sc2nc3ccccc3s2)nc2c1c(=O)[nH]c(=O)n2C here?
Its Potency is inconclusive: 22.4 µM [fluorescent, side channel, single point].

With O=C(CN(Cc1ccc(Cl)cc1)C(=O)CN1C(=O)COc2ccccc21)NC1CCCC1 as the compound, how does the Potency read?
The Potency was inconclusive: 39.8 µM [fluorescent, side channel, single point].

How did the Potency turn out when COC(=O)c1ccccc1Oc1ccc(NC(=O)C(C)(C)CCl)cc1 was run?
Its Potency is inconclusive: 14.1 µM [inhibitor, partial curve].

How did the Potency turn out when COc1ccccc1N1CCN(CCN(C(=O)c2ccc(F)cc2)c2ccccn2)CC1 was run?
The Potency was inconclusive: 20 µM [fluorescent, side channel, single point].

CCOC(=O)c1c(OCC)[nH]c2c1cc(O)c1ccccc12 was tested. Which Potency did it give?
Its Potency is inconclusive: 20 µM [quencher, side channel, partial curve].

With O=C(CN1CCN(c2cccc(Cl)c2)CC1)NCc1ccccc1 as the compound, how does the Potency read?
Its Potency is “inactive”.

Which Potency does the source give for CN1CCN(CCC(=O)N2c3ccccc3Sc3ccc(Cl)cc32)CC1 here?
The Potency was inconclusive: 12.6 µM [inhibitor, partial curve].

With CSCc1cc(N2CCOCC2)nc(SCc2ccc(Cl)cc2Cl)n1 as the compound, how does the Potency read?
The Potency was inconclusive: 14.1 µM [inhibitor, partial curve].

Which Potency does the source give for Cc1nc2ccc([N+](=O)[O-])cc2c(=O)n1Cc1ccc([N+](=O)[O-])cc1 here?
Its Potency is inconclusive: 14.1 µM [quencher, side channel, partial curve].

CCC1(C)NC(=O)N(CC(=O)N2N=C(c3ccccc3)CC2c2ccc(OC)cc2)C1=O (centres undefined) was tested. Which Potency did it give?
The Potency was inconclusive: 12.6 µM [fluorescent, side channel, partial curve].

How did the Potency turn out when CCCCn1nc2cc(C(=O)NCC34CC5CC(CC(C5)C3)C4)ccc2c1OC was run?
The Potency was inconclusive: 1.12 µM [fluorescent, side channel, full curve, poor fit].

How did the Potency turn out when Cc1ccc(CN(C)C(=O)C2CCC(=O)N(CCc3ccccc3)C2)o1 (centres undefined) was run?
Its Potency is inconclusive: 28.2 µM [inhibitor, partial curve].

For COc1ccc(OC)c(/C=C2\Oc3cc(OCC(=O)N4CCC[C@H]4C(=O)O)ccc3C2=O)c1, which Potency is on record?
Its Potency is inconclusive: 28.2 µM [quencher, side channel, single point].

How did the Potency turn out when CO[C@H]1OC2O[C@@]3(C)CC[C@H]4[C@H](C)CC[C@@H]([C@H]1C)[C@@]24OO3 (some centres undefined) was run?
Its Potency is “inactive”.

Cc1ccc(CNC(=O)CN2CCC(C(N)=O)CC2)cc1 was tested. Which Potency did it give?
The Potency was “inactive”.

Which Potency does the source give for COc1cccc(/C=N/NC(=O)c2cc3c(OC)c(OC)ccc3[nH]2)c1OC here?
The Potency was inconclusive: 31.6 µM [quencher, side channel, single point].

How did the Potency turn out when CCCCCCCCCCCCCCCCCC(=O)NCCc1ccc(O)c(O)c1 was run?
The Potency was inconclusive: 2.51 µM [quencher, side channel, full curve].

CCc1cccc(NC(=O)c2cccc3c2C(=O)N(CC2CCCO2)C3)c1 (centres undefined) was tested. Which Potency did it give?
Its Potency is inconclusive: 0.631 µM [quencher, side channel, full curve, poor fit].
